# Results published in PubChem BioAssay AID1458 (National Center for Advancing Translational Sciences (NCATS), 2008).
# About 5,900 (2.8%) of roughly 210,000 compounds were called active. This list was built around the results that the source calls inconclusive (neither active nor inactive); the mix of calls is not that of the screen. Calls come from the whole dose curve; as a rule, active = well fitted activation curve with a large enough effect; inconclusive = small, poorly fitted or top-dose-only effect; inactive = no such curve, though single readings can be large or run the other way. Potencies beside an inconclusive call are fits to weak or partial responses and may not hold up.
# Assay: qHTS Assay for Enhancers of SMN2 Splice Variant Expression; note: nearly all actives have a fitted effect of over 55% in size; for activity change, positive = activation: % of control where 0% means no effect
# Details: HEK293 SMN2-luciferase splicing reporter, luminescence, 30-36 h; activity change, positive = activation: at 46.1 µM (top of the series)
# Description: NIH Chemical Genomics Center [NCGC] NIH Molecular Libraries Probe Production centers Network [MLPCN] MLPCN Grant: R03 MH084179-01 Assay Submitter (PI): Elliot Androphy NCGC Assay Overview: Spinal muscular atrophy (SMA) is caused by insufficient levels of the survival motor neuron protein SMN. The SMN locus on chromosome 5q13 contains two inverted copies of SMN called SMN1 and SMN2 which are 99% identical at the amino acid level. SMN1 is a fully functional protein and SMN2 skips exon 7 90% of the time. Skipping of exon 7 produces non-functional protein product. 10% of the SMN2 protein includes exon 7 and is fully functional. In the SMA disease state, mutations in the SMN1 locus are the cause of the disease state. Because only 10% of SMN2 is of the fully functional form, it is not sufficient to overcome the deficiency produced by the loss of the SMN1 product. A therapy that either increase the amount of SMN2 product made or to increase the inclusion of exon 7 has been proposed for the treatment of SMA. We have designed an assay to identify small molecules that can increase the amount of functional SMN2 product by appending a luciferase reporter gene after the native SMN2 gene, such that inclusion of exon 7 in the expressed product places the luciferase sequence in frame, thus generating functional luciferase enzyme.
# NCGC Assay Protocol Summary: This screen utilizes a luciferase reporter gene assay, combining the promoter and splicing based cassettes in tandem with the major portion of the native SMN2 cDNA, and then transfected into HEK293 cells. Compounds that increase luciferase signal presumably enhance expression of the functional SMN2 splice variant. Passaging media contained DMEM w/ glutamax (+phenol red) 10% FCS, 1x pen/strep, 200 ug/ml hygro, 1x sodium pyruvate. Assay media contained DMEM w/ glutamax (-phenol red) 10% FCS, 1x pen strep, 1x pyruvate Sequence, Parameter, Value, Description (1) Cells, […], 2000 cells/well, 1536 TC treated White solid bottom plate (2) Time, 10-12 hours, 37C 5% CO2 (3) Compound, 23 nl, MLSMR Library (4) Control Compound, 23 nL, Sodium butyrate st 4.5mM (final) conc (5) Time, 30-36 hours, 37C 5% CO2 (6) Reagent, 3 ul, One Glo (TM) from Promega (7) Time, 5-15 minutes, Room temp (8) Detector, Viewlux: luminescent read, 60 second integration, high speed 2x binning Keywords: Spinal muscular atrophy, SMA, SMN2, high throughput screening, MLSMR, MLPCN, NIH Roadmap, qHTS and NCGC
# Potency is the fitted concentration of half-maximal effect; tags give direction and shape of the fitted curve.
SMILES,Potency,"activity change, positive = activation"
Cc1ccn2cc(-c3ccc(NC(=O)c4ccco4)cc3)nc2c1,active: 4.47 µM,–
COC(=O)CC1c2ccccc2C=C(C)N1C(=O)OC (stereo not given),inactive,–
CNc1cc(CSc2ccc(Cl)cc2)nc(C)n1,"inconclusive: 17.8 µM [activator, single point]",–
O=S(=O)(N1CCOCC1)N1CCCN(S(=O)(=O)N2CCOCC2)CC1,"inconclusive: 0.0398 µM [activator, full curve, poor fit]",–
Cc1ccc(C(=O)Nc2ccc(Cl)cc2C(F)(F)F)c(Cl)c1,"inconclusive: 31.6 µM [activator, single point]",–
CC(C(=O)OCC(=O)Nc1ncc(Cl)cc1Cl)N1C(=O)c2ccccc2C1=O (stereo not given),"inconclusive: 11.2 µM [activator, partial curve, poor fit]",–
C/C(=C\C(=O)c1ccc(C)cc1)Nc1cccc(O)c1,"inconclusive: 35.5 µM [activator, single point]",–
c1ccc(Cc2nn3c(C4COc5ccccc5O4)nnc3s2)cc1 (stereo not given),"inconclusive: 2.51 µM [activator, full curve]",–
Cc1cc(C)n2nc(SCC(=O)N(C)C)nc2n1,"inconclusive: 3.98 µM [activator, full curve]",–
O=C(CCSc1nnc(-c2ccccc2)o1)N1CCOCC1,"inconclusive: 5.62 µM [activator, single point]",–
COc1ccc(-c2ccc(/C=N/N3C(=O)C4C5C=CC(C6CC56)C4C3=O)o2)c([N+](=O)[O-])c1 (stereo not given),–,inactive: -4.88% [at 1.84 µM]
CC(C)NC(=O)N1CCOCCOCCN(C(=O)NC(C)C)CCOCCOCC1,"inconclusive: 35.5 µM [activator, partial curve]",–
CCC(=O)Nc1cnc(NC(=O)c2cccc(F)c2)cc1C,active: 11.2 µM,–
c1cncc(-c2nc(NCc3ccco3)c3ccccc3n2)c1,"inconclusive: 35.5 µM [activator, single point]",–
Cn1c(=O)cc(OCC(=O)NCCCN2CCN(Cc3ccccc3)CC2)c2ccccc21,"inconclusive: 25.1 µM [activator, single point]",–
Cc1ccc2c(=O)cc(C(=O)Nc3ccc(S(=O)(=O)N(C)Cc4ccccc4)cc3)oc2c1C,–,inactive: 8.9%
CC1=C(C(=O)Nc2ccccn2)C(c2ccc(Cl)cc2)NC(=S)N1 (stereo not given),"inconclusive: 14.1 µM [activator, partial curve, poor fit]",–
NC(=O)NCC(N)C(=O)O (stereo not given),–,inactive: 0.507%
Cc1cc(C)nc(Nc2n[nH]c(-c3ccccc3Cl)n2)n1,active: 14.1 µM,–
CCOC(=O)c1c(C)nc(-c2ccccc2)nc1NC(=O)CC,"inconclusive: 3.55 µM [activator, partial curve]",–
